From the supplement of paper PMC10369915
This is one part of the list. Cut-off read from the data, not from the text of the source: active = 3.2 or more and inactive = the rest. The signal is at background level for most entries.

The binders below were run against SHP2 C-SH2 domain E139D (assay: enrichment score (SH2-bound / input frequency) (ratio); bacterial display of known human phosphotyrosine sites (pTyr-Var adds point mutants) read by sequencing; higher = stronger binding; tyrosines were phosphorylated by kinases first). Conditions: peptide library: pTyr-Var.
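Note: displayed peptides selected on beads carrying the immobilized SH2 domain, with library peptides lacking any tyrosine serving as negative controls.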

Enrichment score, inactive:
LKDEDYLKDIV [HAUS3_Y582] 0.483, LKDEDYLKDTV [HAUS3_Y582_I586T] 0.343, VLTSKYRGGGG [HBA1_Y141] 0.485, VLTSTYRGGGG [HBA1_Y141_K140T] 0.723, VMTSKYRGGGG [HBA1_Y141_L137M] 0.564, VLTSKYCGGGG [HBA1_Y141_R142C] 0.519, VLTSKYPGGGG [HBA1_Y141_R142P] 0.646, VLTSKHRGGGG [HBA1_Y141_Y141H] 0.891, AHDGEYGAEAL [HBA1_Y25_A22D] 0.392, AHAGEYGEEAL [HBA1_Y25_A27E] 0.452, AHAGGYGAEAL [HBA1_Y25_E24G] 0.854, AHAGKYGAEAL [HBA1_Y25_E24K] 0.744, AHAGEYGAGAL [HBA1_Y25_E28G] 0.532, AHAGEYGAVAL [HBA1_Y25_E28V] 0.615, AQAGEYGAEAL [HBA1_Y25_H21Q] 0.513, PTTKTYFPHFH [HBA1_Y43_D48H] 2.07, PTTKTYFPHFY [HBA1_Y43_D48Y] 1.19, PTTKTYFPQFD [HBA1_Y43_H46Q] 1.41, PTTMTYFPHFD [HBA1_Y43_K41M] 1.05

Each binder was assayed against SHP2 C-SH2 domain wild-type in the same assay as above. Conditions: peptide library: pTyr-Var.

Enrichment score, inactive:
LKDEDYLKDIV [HAUS3_Y582] 0.466, LKDEDYLKDTV [HAUS3_Y582_I586T] 0.439, VLTSKYRGGGG [HBA1_Y141] 0.312, VLTSTYRGGGG [HBA1_Y141_K140T] 0.759, VMTSKYRGGGG [HBA1_Y141_L137M] 0.491, VLTSKYCGGGG [HBA1_Y141_R142C] 0.639, VLTSKYPGGGG [HBA1_Y141_R142P] 0.725, VLTSKHRGGGG [HBA1_Y141_Y141H] 1.1, AHDGEYGAEAL [HBA1_Y25_A22D] 0.462, AHAGEYGEEAL [HBA1_Y25_A27E] 0.454, AHAGGYGAEAL [HBA1_Y25_E24G] 0.64, AHAGKYGAEAL [HBA1_Y25_E24K] 0.494, AHAGEYGAGAL [HBA1_Y25_E28G] 0.703, AHAGEYGAVAL [HBA1_Y25_E28V] 0.698, AQAGEYGAEAL [HBA1_Y25_H21Q] 0.427, PTTKTYFPHFH [HBA1_Y43_D48H] 1.86, PTTKTYFPHFY [HBA1_Y43_D48Y] 1.04, PTTKTYFPQFD [HBA1_Y43_H46Q] 0.753, PTTMTYFPHFD [HBA1_Y43_K41M] 0.753

What follows are binders tested against SHP2 N-SH2 domain L43F in the same assay as above. Conditions: peptide library: pTyr-Var.

Enrichment score, inactive:
LKDEDYLKDIV [HAUS3_Y582] 0.541, LKDEDYLKDTV [HAUS3_Y582_I586T] 0.575, VLTSKYRGGGG [HBA1_Y141] 0.41, VLTSTYRGGGG [HBA1_Y141_K140T] 0.815, VMTSKYRGGGG [HBA1_Y141_L137M] 0.49, VLTSKYCGGGG [HBA1_Y141_R142C] 0.51, VLTSKYPGGGG [HBA1_Y141_R142P] 0.873, VLTSKHRGGGG [HBA1_Y141_Y141H] 0.783, AHDGEYGAEAL [HBA1_Y25_A22D] 0.393, AHAGEYGEEAL [HBA1_Y25_A27E] 0.541, AHAGGYGAEAL [HBA1_Y25_E24G] 0.726, AHAGKYGAEAL [HBA1_Y25_E24K] 0.616, AHAGEYGAGAL [HBA1_Y25_E28G] 0.505, AHAGEYGAVAL [HBA1_Y25_E28V] 0.621, AQAGEYGAEAL [HBA1_Y25_H21Q] 0.417, PTTKTYFPHFH [HBA1_Y43_D48H] 1.85, PTTKTYFPHFY [HBA1_Y43_D48Y] 0.919, PTTKTYFPQFD [HBA1_Y43_H46Q] 0.961, PTTMTYFPHFD [HBA1_Y43_K41M] 0.907

The binders below were run against SHP2 N-SH2 domain T42A in the same assay as above. Conditions: peptide library: pTyr-Var.

Enrichment score, inactive:
LKDEDYLKDIV [HAUS3_Y582] 0.479, LKDEDYLKDTV [HAUS3_Y582_I586T] 0.42, VLTSKYRGGGG [HBA1_Y141] 0.44, VLTSTYRGGGG [HBA1_Y141_K140T] 0.676, VMTSKYRGGGG [HBA1_Y141_L137M] 0.449, VLTSKYCGGGG [HBA1_Y141_R142C] 0.634, VLTSKYPGGGG [HBA1_Y141_R142P] 0.748, VLTSKHRGGGG [HBA1_Y141_Y141H] 0.504, AHDGEYGAEAL [HBA1_Y25_A22D] 0.502, AHAGEYGEEAL [HBA1_Y25_A27E] 0.548, AHAGGYGAEAL [HBA1_Y25_E24G] 0.483, AHAGKYGAEAL [HBA1_Y25_E24K] 0.646, AHAGEYGAGAL [HBA1_Y25_E28G] 0.44, AHAGEYGAVAL [HBA1_Y25_E28V] 0.462, AQAGEYGAEAL [HBA1_Y25_H21Q] 0.345, PTTKTYFPHFH [HBA1_Y43_D48H] 2.04, PTTKTYFPHFY [HBA1_Y43_D48Y] 0.959, PTTKTYFPQFD [HBA1_Y43_H46Q] 0.696, PTTMTYFPHFD [HBA1_Y43_K41M] 0.836

These binders were tested against SHP2 N-SH2 domain T52S in the same assay as above. Conditions: peptide library: pTyr-Var.

Enrichment score, inactive:
LKDEDYLKDIV [HAUS3_Y582] 0.23, LKDEDYLKDTV [HAUS3_Y582_I586T] 0.928, VLTSKYRGGGG [HBA1_Y141] 0.532, VLTSTYRGGGG [HBA1_Y141_K140T] 0.658, VMTSKYRGGGG [HBA1_Y141_L137M] 0.536, VLTSKYCGGGG [HBA1_Y141_R142C] 0.609, VLTSKYPGGGG [HBA1_Y141_R142P] 0.684, VLTSKHRGGGG [HBA1_Y141_Y141H] 0.531, AHDGEYGAEAL [HBA1_Y25_A22D] 0.624, AHAGEYGEEAL [HBA1_Y25_A27E] 0.419, AHAGGYGAEAL [HBA1_Y25_E24G] 0.63, AHAGKYGAEAL [HBA1_Y25_E24K] 0.699, AHAGEYGAGAL [HBA1_Y25_E28G] 0.54, AHAGEYGAVAL [HBA1_Y25_E28V] 0.615, AQAGEYGAEAL [HBA1_Y25_H21Q] 0.363, PTTKTYFPHFH [HBA1_Y43_D48H] 1.88, PTTKTYFPHFY [HBA1_Y43_D48Y] 0.968, PTTKTYFPQFD [HBA1_Y43_H46Q] 1.12, PTTMTYFPHFD [HBA1_Y43_K41M] 0.921

Each binder was assayed against SHP2 N-SH2 domain wild-type in the same assay as above. Conditions: peptide library: pTyr-Var.

Enrichment score, inactive:
LKDEDYLKDIV [HAUS3_Y582] 0.688, LKDEDYLKDTV [HAUS3_Y582_I586T] 0.501, VLTSKYRGGGG [HBA1_Y141] 0.446, VLTSTYRGGGG [HBA1_Y141_K140T] 0.774, VMTSKYRGGGG [HBA1_Y141_L137M] 0.618, VLTSKYCGGGG [HBA1_Y141_R142C] 0.514, VLTSKYPGGGG [HBA1_Y141_R142P] 0.9, VLTSKHRGGGG [HBA1_Y141_Y141H] 1.09, AHDGEYGAEAL [HBA1_Y25_A22D] 0.642, AHAGEYGEEAL [HBA1_Y25_A27E] 0.584, AHAGGYGAEAL [HBA1_Y25_E24G] 0.635, AHAGKYGAEAL [HBA1_Y25_E24K] 0.773, AHAGEYGAGAL [HBA1_Y25_E28G] 0.565, AHAGEYGAVAL [HBA1_Y25_E28V] 0.79, AQAGEYGAEAL [HBA1_Y25_H21Q] 0.393, PTTKTYFPHFH [HBA1_Y43_D48H] 2.39, PTTKTYFPHFY [HBA1_Y43_D48Y] 1.16, PTTKTYFPQFD [HBA1_Y43_H46Q] 0.914, PTTMTYFPHFD [HBA1_Y43_K41M] 1.1
